Laboratory results: PubChem BioAssay AID1240 (Sanford-Burnham Center for Chemical Genomics, 2008)
Out of some 50,000 compounds screened, about 800 (1.6%) showed an effect of 50% or more. This is one part of the list.

Target: Bcl-2-like protein 10 (Homo sapiens) (UniProt Q9HD36)
Experiment: TR3 peptide-Bcl-B binding displacers, biochemical primary FP assay, phenotype converters (AID 1240);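 also: 0% = Bcl-B with tracer peptide and DMSO and 100% = tracer peptide lacking Bcl-B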
Conditions: GST-Bcl-B / FITC-TR3 peptide fluorescence polarization; stronger effect = higher value; compound at 3.75 mg/L

UniProt Q9HD36, sequence (Q9HD36 whole entry, looked up): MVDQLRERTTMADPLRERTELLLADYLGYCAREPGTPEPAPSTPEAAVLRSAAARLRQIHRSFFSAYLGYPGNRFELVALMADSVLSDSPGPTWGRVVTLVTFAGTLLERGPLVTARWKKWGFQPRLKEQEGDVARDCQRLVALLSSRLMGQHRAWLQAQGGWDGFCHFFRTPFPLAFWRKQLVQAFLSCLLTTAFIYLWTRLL

| SMILES | displacement [%] |
| --- | --- |
| COc1ccc(-c2nc3cc(NC(=O)c4cccc([N+](=O)[O-])c4C)ccc3o2)cc1Br | -2.1 |
| CC(C)C12CN3CC(C(C)C)(CN(C1)C3c1cc(Br)ccc1O)C2=O (stereo not given) | 7.3 |
| COC(=O)c1sccc1NC(=O)c1cc(-c2cccs2)nc2ccccc12 | 60.4 |
| O=C(N/N=C\c1ccc(Cl)c(Cl)c1)c1cnccn1 | -7.3 |
| CN1CCOCCOCCN(C)C1=O | 10.6 |
| CC1=NN(c2cccc(C(=O)O)c2)C(=O)/C1=C\c1ccc(C)cc1 | -9.2 |
| CCC12c3ccccc3C(c3ccccc31)C1C(=O)N(c3cc(Cl)ccc3C)C(=O)C12 (stereo not given) | 8.3 |
| O=c1[nH]c(N/N=C\c2c(Cl)cccc2Cl)nnc1-c1ccccc1 | -19.5 |
| CC(C)OCC(O)Cn1c2ccccc2c2ccccc21 (stereo not given) | -4.5 |
| COC(=O)c1cccc(S(=O)(=O)Nc2ccc(C(=O)O)cc2)c1 | -1.3 |
| CSc1ccccc1NC(=O)Cn1nc([N+](=O)[O-])cc1C | 4.9 |
| O=C(Nc1ccccc1[N+](=O)[O-])c1cc(-c2cccs2)nc2ccccc12 | 8.4 |
| CC(=O)/C(N=Nc1ccc2c(c1)OCCO2)=C(\C)O | 15.9 |
| O=C(c1cccs1)N1CCCCCC1 | 0.2 |
| COC(=O)c1ccc(/C=C/C(=O)c2cccc([N+](=O)[O-])c2)cc1 | 9.2 |
| Cc1ccc(O)c(-c2cc(-c3ccc(C(F)(F)F)cc3)n[nH]2)c1 | -4.7 |
| CC(C)(C)NC(=O)C1C(C=C(Cl)Cl)C1(C)C (stereo not given) | 12 |
| CSc1ccc(/C=N/NC(=O)COc2cccc(C)c2)cc1 | 6.9 |
| Cc1ccc(-c2csc(NC(=O)CCCC(=O)O)n2)cc1 | -1.6 |
| Clc1ccc2nc(N/N=C/c3nc4ccccc4[nH]3)nc(-c3ccccc3)c2c1 | 0.7 |
| COc1cc(OC)cc(C(=O)O/N=C2/C(=O)N(C)c3ccccc32)c1 | 11.6 |
| CCOC(=O)C1=C(O)/C(=C/N(C)C)N=C1C | 17.3 |
| Cc1cc2nc(-c3ccccc3)cc(-c3ccccc3)n2n1 | -21.9 |
| Nc1n[nH]c(N)c1N=Nc1ccc(Cl)cc1 | -1 |

| SMILES | displacement [%] |
| --- | --- |
| COc1ccc(C(=O)Nc2ccc(NC(=O)c3ccco3)c(OC)c2)cc1 | -11.4 |
| CC1=C(C(=O)Nc2ccccc2C)C(c2ccc(C(C)C)cc2)NC(=O)N1 (stereo not given) | 14.9 |
| CC(C)N(C(=O)c1ccc(C(=O)N(C(C)C)C(C)C)cc1)C(C)C | 12.9 |
| COc1cccc(NC(=O)c2cc(I)ccc2Cl)c1 | -1.8 |
| Clc1ccccc1OCCCCCN1CCCC1 | 5.8 |
| C=CCn1c2ccccc2c2nnc(SCC(=O)Nc3sc4c(c3C#N)CCCC4)nc21 | -25.6 |
| Cc1ccc(OCC(=O)O/N=C(\N)c2cccnc2)c(C)c1 | 4.5 |
| COc1ccccc1C(=O)N1CCN(Cc2ccc([N+](=O)[O-])cc2)CC1 | 7.8 |
| CCCCc1c(C)nc(N/N=C(\C)c2cccc([N+](=O)[O-])c2)[nH]c1=O | -1.2 |
| O=C(Cn1nc(-c2ccccc2)c2ccccc2c1=O)N1CCCCC1 | 28 |
| COc1ccc(CCN(C(=O)/C=C/C(=O)O)C2CC(=O)N(c3ccc(F)cc3)C2=O)cc1 (stereo not given) | -4.2 |
| O=c1[nH]c(SCc2nc3ccccc3[nH]2)nc2ccccc12 | 5.4 |
| O=C(CSCC(=O)c1ccc(F)cc1)Nc1ccc2ccccc2c1 | -17.7 |
| CC(C)(C)c1cc(N2C(=O)C(=O)/C(=C(/O)c3ccc(Cl)cc3)C2c2cccc(F)c2)no1 (stereo not given) | -4.3 |
| O=C(Nc1cc(-c2nc3ccccc3o2)ccc1Cl)c1cccs1 | -1.6 |
| Cc1ccc(OCC(=O)N/N=C\c2ccc(OC(=O)c3cccs3)cc2)cc1 | -0.3 |
| O=C(O)c1cccc(N2Cc3ccccc3C2)c1 | 11.3 |
| CCCCOc1ccc(NC(=O)COc2ccccc2OC)cc1 | -8 |
| O=C(NC(NC(=S)Nc1cccc(O)c1)C(Cl)(Cl)Cl)c1cccc([N+](=O)[O-])c1 (stereo not given) | 4.9 |
| c1ccc(Nc2nc(-c3ccncc3)cs2)nc1 | -9.6 |
| O=C1S/C(=C\c2ccc3c(c2)OCO3)C(=O)N1Cc1ccccc1 | -6.3 |
| CCOC(=O)c1[nH]nc2c1C(=O)N(c1ccc(OC)c(Br)c1)C2=O | -8.3 |
| O=c1nc(/C=C/c2ccc(N3CCCC3)cc2)cc(C(F)(F)F)[nH]1 | -63.9 |
| Cc1cccc2nc(-c3cccc([N+](=O)[O-])c3)oc(=O)c12 | 26.3 |

| SMILES | displacement [%] |
| --- | --- |
| N#C/C(=C(/O)c1cccc2ccccc12)c1nc2ccccc2[nH]1 | -6.8 |
| CCCOC(=O)c1cccc(NC(=O)/C=C/c2ccc(Cl)cc2)c1 | 17.6 |
| COc1ccc(CN2CCN(C(=O)c3cccs3)CC2)cc1OC | -5.8 |
| CCOC(=O)c1cnc2cc(-c3ccc(Br)cc3)[nH]n2c1=O | 11 |
| COc1cccc(-n2sc3c(c2=S)-c2cc(Cl)ccc2NC3(C)C)c1 | 12.6 |
| Cc1ccc(N2C(=O)NC(=O)/C(=C\c3ccc(O)c(Cl)c3)C2=O)cc1 | 0.7 |
| COc1ccccc1Cc1noc(-c2ccc([N+](=O)[O-])cc2)n1 | -7.3 |
| CC1=C(C(=O)OCCc2ccccc2)C(c2ccc(Cl)cc2)C2=C(CCCC2=O)N1 (stereo not given) | -3.6 |
| NC1=NC(=O)/C(=C\c2ccc(-c3ccc(C(=O)O)cc3)o2)S1 | -2.4 |
| CC(=O)NS(=O)(=O)c1ccc(NC(=O)c2ccc(F)cc2)cc1 | -9.6 |
| O=[N+]([O-])c1ccc(C(O)CN2CCN(c3ccccc3)CC2)cc1 (stereo not given) | -6.6 |
| COc1ccccc1N1C(=O)/C(=C/c2c(Cl)cccc2Cl)SC1=S | -4.4 |
| O=C(Nc1ccc(Cl)c(Cl)c1)Nc1nnc(Cc2ccccc2F)s1 | 5.6 |
| O=C(COc1ccc2ccccc2c1)N1CCN(C(=O)c2cccs2)CC1 | -13.5 |
| O=C(NCC1CCCO1)c1cc2n(n1)C(C(F)(F)F)CC(c1ccc(Cl)cc1)N2 (stereo not given) | 0.1 |
| COc1cccc(C2=NN(C(=O)c3ccncc3)C(O)(C(F)(F)F)C2)c1 (stereo not given) | -10.4 |
| O=[N+]([O-])c1cc(Cl)ccc1N1CCN(S(=O)(=O)c2ccccc2)CC1 | 9.7 |
| Cc1ccc(OCC(=O)Nc2ccc(Cl)c([N+](=O)[O-])c2)c(C)c1 | -0.3 |
| O=C(Cc1ccccc1)Nc1ncc(Cc2ccc(F)cc2)s1 | -1.9 |
| COC(=O)CN(c1ccc(OC)cc1)S(=O)(=O)c1ccccc1 | -3 |
| O=[N+]([O-])c1ccc2c(c1)c1ccccc1n2CO | -6.7 |
| C/C(NCCc1ccccc1)=C(/C#N)C(N)=O | 11.4 |
